Measured values from patent EP0552418A1, “N-substituted-3-iodopropiolamide, production and use thereof” (TAKEDA CHEMICAL INDUSTRIES, LTD., priority 1992, dated 1993).
At least one read-out could not be matched to a standard name with certainty.

Test system: Aspergillus Niger, Penicillium funiculosum, Rhizopus javanicus, Aureobasidium pullulans, Gliocladium virens
Test: Fungicide activity for wood fungicide, sum over the five fungi and damage value
Type: cell-based
Conditions: 0.5% xylene solution; for Sum (S = A₁ + A₂ + A₃ + A₄ + A₅): sum of average ratings of five fungi, untreated 15.0; for damage value (D = S₁ / S₀ × 100): relative to untreated specimens (100.0), lower = higher activity
Experimental: This test was conducted according to Specification No.2 of Japan Wood Preserving Association, enacted in 1979 and titled "Test methods of fungicide activity for wood fungicide".
• ① Aspergillus niger van Tieghem IFO 6341 = ATCC 6275 • ② Penicillium funiculosum Thom (formerly : Penicillium luteum Zukal) IFO 6345 = ATCC 9644 . • ③ Rhizopus javanicus Takeda (formerly : Rhizopus nigricans Ehrenberg S.N. 32) IFO 6354 • ④ Aureobasidium pullulans (de Bary) Arnaud IFO 6353 = IAM (H. Iizuka, F-24) • ⑤ Gliocladium virens Miller, Gidden & Fosteb IFO 6355 = ATCC 9645 (formerly : Trichoderma viride, T.I.)
The average rating (A) was determined for each type of fungi with the following equation: Average rating (A) = (a₁ + a₂ + a₃ + a₄ + a₅ + a₆ ) / 6 [formula] wherein a₁, a₂ ...a₆ : rating for each test specimen.
The damage value was determined with the following equation after determining the sum of average rating by adding each rating of test specimens for each concentration of fungicide solution: S = A₁ + A₂ + A₃ + A₄ + A₅ [formula] wherein A₁, A₂.., A₅: average rating for each type of fungi D = S₁ / S₀ × 100 [formula] wherein S₀ : S for untreated test specimens S₁ : S for specimens treated with certain concentration of fungicide solution
Both lower rating value and lower damage value correspond to higher wood fungicide activity. […]

SMILES | Sum (S = A₁ + A₂ + A₃ + A₄ + A₅) | damage value (D = S₁ / S₀ × 100)
CC(C)(C)NC(=O)C#CI [Example 1, N-(tert-Butyl)-3-iodopropiolamide] | 2.0 | –
CCCCCCCCCCNC(=O)C#CI [Example 2, N-(n-Decyl)-3-iodopropiolamide] | 9.3 | –
CCCCNC(=O)C#CI [Example 4, N-(n-Butyl)-3-iodopropiolamide] | 1.0 | 6.7
CCC(C)NC(=O)C#CI (centres unmarked) [Example 5, N-(sec-Butyl)-3-iodopropiolamide] | 4.3 | –
CC(C)CNC(=O)C#CI [Example 6, N-Isobutyl-3-iodopropiolamide] | 3.0 | –
CCCCCNC(=O)C#CI [Example 7, N-(n-Pentyl)-3-iodopropiolamide] | 5.2 | –
CCCCCCNC(=O)C#CI [Example 8, N-(n-Hexyl)-3-iodopropiolamide] | 3.5 | –
CCCCCCCNC(=O)C#CI [Example 9, N-(n-Heptyl)-3-iodopropiolamide] | 7.5 | 50.0
CCCCCCCCNC(=O)C#CI [Example 10, N-(n-Octyl)-3-iodopropiolamide] | 8.2 | –
